Measured values taken from paper PMC12167477, “Setdb1 and Atf7IP form a hetero-trimeric complex that blocks Setdb1 nuclear export” (The Journal of Biological Chemistry, 2025).
These are yes or no findings as the source states them, for the method shown. In cells and extracts the contact can be indirect. Sequences can lack the tags named with a protein.

Biological target: T1, FLAG-Atf7IP(Δ574-666) (human) (UniProt Q6VMQ6)
T1 sequence: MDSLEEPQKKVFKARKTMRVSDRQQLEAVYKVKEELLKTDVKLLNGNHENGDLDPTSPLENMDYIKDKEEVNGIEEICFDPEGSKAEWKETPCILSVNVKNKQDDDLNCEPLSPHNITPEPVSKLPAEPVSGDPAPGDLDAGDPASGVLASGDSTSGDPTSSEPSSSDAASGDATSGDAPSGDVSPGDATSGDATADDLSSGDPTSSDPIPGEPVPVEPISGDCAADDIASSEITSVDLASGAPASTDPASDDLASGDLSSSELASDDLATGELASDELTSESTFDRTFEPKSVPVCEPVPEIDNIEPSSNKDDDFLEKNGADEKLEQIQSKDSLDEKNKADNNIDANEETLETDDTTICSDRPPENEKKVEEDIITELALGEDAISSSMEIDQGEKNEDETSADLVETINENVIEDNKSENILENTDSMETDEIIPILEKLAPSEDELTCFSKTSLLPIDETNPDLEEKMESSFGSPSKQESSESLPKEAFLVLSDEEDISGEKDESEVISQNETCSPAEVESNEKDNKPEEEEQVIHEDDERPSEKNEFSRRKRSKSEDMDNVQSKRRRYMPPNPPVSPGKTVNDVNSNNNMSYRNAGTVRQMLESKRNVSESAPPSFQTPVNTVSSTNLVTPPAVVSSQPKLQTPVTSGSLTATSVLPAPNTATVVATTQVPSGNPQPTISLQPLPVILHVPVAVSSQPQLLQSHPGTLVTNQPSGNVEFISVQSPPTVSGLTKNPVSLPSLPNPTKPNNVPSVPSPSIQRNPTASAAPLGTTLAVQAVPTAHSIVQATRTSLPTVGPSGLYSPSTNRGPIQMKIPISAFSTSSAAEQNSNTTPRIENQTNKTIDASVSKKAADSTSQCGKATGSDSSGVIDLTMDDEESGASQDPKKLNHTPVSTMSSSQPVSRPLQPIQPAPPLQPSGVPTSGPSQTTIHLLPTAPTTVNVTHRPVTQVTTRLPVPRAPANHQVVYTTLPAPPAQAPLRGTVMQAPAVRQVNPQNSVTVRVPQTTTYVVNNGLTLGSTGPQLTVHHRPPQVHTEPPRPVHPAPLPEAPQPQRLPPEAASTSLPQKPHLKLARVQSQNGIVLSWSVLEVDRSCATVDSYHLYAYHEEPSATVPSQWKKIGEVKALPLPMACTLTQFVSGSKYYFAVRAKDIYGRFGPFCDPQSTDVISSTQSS
Assay: co-IP; HEK293 cells transiently co-transfected; lysis in 30 mM HEPES pH 7.9, 400 mM NaCl, 10% glycerol, 0.05% Tween-20, 2 mM BME, Benzonase; anti-DYKDDDDK magnetic beads, FLAG peptide elution, blots with anti-FLAG, anti-HA, anti-Myc

binding: no binding
B1: full-length Atf7IP, FLAG- or Myc-tagged (protein, UniProt Q6VMQ6 1-1270)
chain: MDSLEEPQKKVFKARKTMRVSDRQQLEAVYKVKEELLKTDVKLLNGNHENGDLDPTSPLENMDYIKDKEEVNGIEEICFDPEGSKAEWKETPCILSVNVKNKQDDDLNCEPLSPHNITPEPVSKLPAEPVSGDPAPGDLDAGDPASGVLASGDSTSGDPTSSEPSSSDAASGDATSGDAPSGDVSPGDATSGDATADDLSSGDPTSSDPIPGEPVPVEPISGDCAADDIASSEITSVDLASGAPASTDPASDDLASGDLSSSELASDDLATGELASDELTSESTFDRTFEPKSVPVCEPVPEIDNIEPSSNKDDDFLEKNGADEKLEQIQSKDSLDEKNKADNNIDANEETLETDDTTICSDRPPENEKKVEEDIITELALGEDAISSSMEIDQGEKNEDETSADLVETINENVIEDNKSENILENTDSMETDEIIPILEKLAPSEDELTCFSKTSLLPIDETNPDLEEKMESSFGSPSKQESSESLPKEAFLVLSDEEDISGEKDESEVISQNETCSPAEVESNEKDNKPEEEEQVIHEDDERPSEKNEFSRRKRSKSEDMDNVQSKRRRYMEEEYEAEFQVKITAKGDINQKLQKVIQWLLEEKLCALQCAVFDKTLAELKTRVEKIECNKRHKTVLTELQAKIARLTKRFEAAKEDLKKRHEHPPNPPVSPGKTVNDVNSNNNMSYRNAGTVRQMLESKRNVSESAPPSFQTPVNTVSSTNLVTPPAVVSSQPKLQTPVTSGSLTATSVLPAPNTATVVATTQVPSGNPQPTISLQPLPVILHVPVAVSSQPQLLQSHPGTLVTNQPSGNVEFISVQSPPTVSGLTKNPVSLPSLPNPTKPNNVPSVPSPSIQRNPTASAAPLGTTLAVQAVPTAHSIVQATRTSLPTVGPSGLYSPSTNRGPIQMKIPISAFSTSSAAEQNSNTTPRIENQTNKTIDASVSKKAADSTSQCGKATGSDSSGVIDLTMDDEESGASQDPKKLNHTPVSTMSSSQPVSRPLQPIQPAPPLQPSGVPTSGPSQTTIHLLPTAPTTVNVTHRPVTQVTTRLPVPRAPANHQVVYTTLPAPPAQAPLRGTVMQAPAVRQVNPQNSVTVRVPQTTTYVVNNGLTLGSTGPQLTVHHRPPQVHTEPPRPVHPAPLPEAPQPQRLPPEAASTSLPQKPHLKLARVQSQNGIVLSWSVLEVDRSCATVDSYHLYAYHEEPSATVPSQWKKIGEVKALPLPMACTLTQFVSGSKYYFAVRAKDIYGRFGPFCDPQSTDVISSTQSS
